Results from the supplement of paper PMC11417369.
This is one part of the list.

These sequences were tested on PfAP2-HC AP2 domain (GST-tagged) (assay: gcPBM binding intensity (ln(normalized median fluorescence intensity)); higher = stronger DNA binding).
How it was run: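 Binding intensity is defined as the maximum Masliner-normalised natural-log median intensity across replicate spots for either probe orientation. It was measured on an Agilent 4 × 180k array of primer-extended double-stranded 36-bp intergenic genomic probes and negative controls, to which GST-tagged P. falciparum DNA-binding domains made in E. coli were applied for 1 h in 1× PBS with 1% milk, 0.2 mg/ml BSA, 0.5% salmon testes DNA and 0.03% Triton X-100. Detection was by Alexa488 anti-GST antibody and scanning at 488 nm.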

Sequence	gcPBM binding intensity (ln)
AAAACATAACATTGTTGTACTACTAATAAAATAAGT [XGTACX_site6149]	9.77
ATAATTTTGTATAATTGTACATTATTTTAAATAAAT [XGTACX_site7952]	9.56
TCTTTATTATTCGCCACACACATATAAATATAAATA [CACACA_site7441]	9.86
TTTTTTTTTTTTTTTAAACACACGGTGTGAAAATTA [CACACA_site3818]	9.43
ATCAATCATGGTTTTACACACACATGCATGTGAAAA [CACACA_site1350]	9.86
TTTTCTGTGTTTACATGTACGAAAGATTAATATTAT [XGTACX_site5214]	9.68
ATTTGATAGACACATGCACACATGCAATACTTTATT [CACACA_site5633]	10.1
TTATCATATCATGGAAGTACAAATAAAATATATAAC [XGTACX_site1608]	9.72
AATGATATATTTAAATGTACACATGAAATATAATAT [XGTACX_site2678]	9.68
TTATATTTGATAGTTTGTACATATAATTATTATCAT [XGTACX_site5676]	9.8
TATCTTCAAGTATGTACACACTATATATAATAAAAT [CACACA_site5368]	9.79
ATAATTACATTCCATACACACATATATTTAAAGGTT [CACACA_site7403]	9.81
TTCTTGTTCCTGAAAGTGCATATAACAAAAATAACA [GTGCAC_site9635]	9.46
TATAAGTGCCGTTATACACACGTTATATAAATATTA [CACACA_site4401]	9.59
ATAATTATATTTAGTGGTACTACTTTTGATAATTAG [XGTACX_site6562]	9.33
TGTAATATATGTATTGCACACCTATAACCATTATTT [CACACA_site8422]	9.89
GATGAATAATATGTATGTACATATGCATTATGATGT [XGTACX_site7655]	9.8
ATATGCACTTTTTGCACACGTATGAATAACAAAATA [CACACA_site1810]	9.93
ACATATAGATAAATATGTACATATATATATATATAT [XGTACX_site1806]	9.63
AAATGTGAAAAAGAGTGTACCCGACTTGAAATTAAG [XGTACX_site8621]	9.74
AGTAGAATATCCCCTACACACCCAAGTAATTTACAA [CACACA_site6708]	10.4
AATTAAAAGTGAAGAGTGCATAGAATTTTTTACTTT [GTGCAC_site9973]	9.64
TTTAATTTTCAATGGCGTACATATAAAATATTATAT [XGTACX_site1672]	9.62

Sequence	gcPBM binding intensity (ln)
ACAAAAAGTTACATACGTACGTAAAATTGTAATAAA [XGTACX_site2358]	9.91
ATAATACCATTAATTTGTACATATATATTATATATA [XGTACX_site4345]	9.68
ATTATATTATATATATGTACATATATATATCATAAT [XGTACX_site1]	9.52
TTTTGGATGAACAGTACATGCAAAAACAAACTTGTA [TGCATGCA_site16]	9.47
TGCTTCTTTTAAAAACATGTTTGTATTCATTTTATA [CACACA_negctrl_site1627]	9.85
ATTTCTCTATCGTAATGTACAAAAAAAAGGAAAAAA [XGTACX_site1323]	9.53
ACATATAAATGATATGTACACACATTTATATATATA [CACACA_site9152]	9.83
TTTTTAACGTATAAGGTGCACTGTATATGGTACTCA	9.54
TCTTCTTTAAAAGAGGTGCACTATATAATGTGATTA [GTGCAC_site9431]	9.45
TAATTATACTTATTTTGTACGCAATATTTAAAATAA [XGTACX_site8516]	9.48
TATATATATATATATTGTACACATACATGTAGTTTT [XGTACX_site4848]	10.3
TATATATATATATAGGTGCAATATTGAAAAAATATC [GTGCAC_site9535]	10.1
AAAGTAATATATAATACATGCGTAAATATTTATGTA [TGCATGCA_site254]	9.84
GACAAATGAAAAGATTGTACATGTATTTGAAGATTA [XGTACX_site6775]	9.69
TGATTATATATAAATGTATGCATGTCTATTATGCTA [TGCATGCA_site543]	9.56
TACACAAAAATTTATACACACACATATATAATATAT [CACACA_site7931]	10.1
TCTTTTATATTTTTTTGTACACAAGAATAAAGAAAA [XGTACX_site3394]	9.31
ATCTTTTATATATTCACACATAAAATTATACAGATA [CACACA_site5277]	9.46
GAGTTTTAATGTAATAGTACTTTAATTATTATATAT [XGTACX_site4527]	9.7
TTTTTTTTTTATTCATGTACGTATTTAAATAATTCT [XGTACX_site2651]	9.64
AAAAAAAAAAAAAACACACAAACAAATGAATAAATA [CACACA_site3300]	9.84
ATATATATATATAATGCACACATTATAAATTATGTA [CACACA_site5802]	9.72
AATAAATAAATAAATATATATATATATATATATATA [CACACA_negctrl_site708]	9.54

Sequence	gcPBM binding intensity (ln)
TATTTTTATTTTACATTATTTGTTTATAATTCTTAA [CACACA_negctrl_site1358]	9.59
TGTATATACATAAAGTGTACGTATATTTATATATAT [XGTACX_site4320]	9.62
TATATATATAAGGATAGTACATATATTTATATGATT [XGTACX_site4954]	9.61
AAAATTATAAAATGGGCACACATGAATATTGTAGTA [CACACA_site5261]	10.1
ATGAAATTTATATCATGTACATACAAGAGAAAAAAA [XGTACX_site3326]	9.75
GTATAATAAATGATAGCACACATATGTACTTATATA [CACACA_site8188]	9.77
TTATATATTTCTATTGCACACTATATTTTATGAAGA [CACACA_site2910]	9.68
GACTACACACAAGGGTGTACATATATATTATATATA [XGTACX_site2247]	9.75
TTAACTTATTTGTAAAGTACATTAATAAAAAGAAAA [XGTACX_site1588]	9.32
AGGTTATAATTGTTTTCACACATTTAAAAATGTTAT [CACACA_site5097]	9.7
TTTATTTTAAATTTACGTACATAATTAATCATATTT [XGTACX_site7529]	9.76
ATAAAAAATTAGGACTGTACATAATTTTTGTGATTT [XGTACX_site2857]	9.66
TAATGCAACATTTATGTGCACATAAATATTTTTTAA	9.52
AAAACACAATTTATTACACACATATATTATAGATTA [CACACA_site6780]	10.1
TTATAAAAATACAGTTAACACACATGTGTATATATA [CACACA_site9257]	9.82
AAAAAAAAAATATACACACACACATACCCATAAATA [CACACA_site5981]	10.7
GATCGCATGAAATGAACACACATAAAAAAAATATAC [CACACA_site4087]	9.9
AAAATAATCTTATGCACACCAAAAATTTATATAATC [CACACA_site1235]	9.76
ATAACAAAATAAAACACACACACAAATGTACAGATA [CACACA_site5358]	10.5
ATTTTTGTGTTTACACGTACGTGTAAATTATTTTTC [XGTACX_site1869]	9.95
TATTCATGTTTAAAAAGTACATATTATGGTAACATT [XGTACX_site4533]	9.58
AGAAGCATACATCAAGCACACACACCCACACCCACA [CACACA_site8014]	11.4
TCCTTTTCTTAATTTAAAAAATATAAAAAAAACGAA [CACACA_negctrl_site1821]	9.24

Sequence	gcPBM binding intensity (ln)
ACACGTTTATATAAAAAATTAAAATTTTTCTTATTT [CACACA_negctrl_site1523]	9.59
AATACATACAGACACACACACACATATAAATAAATA [CACACA_site7642]	11.6
GCTCATTGAAGTTATACACACCAAATATGTAAATAT [CACACA_site7217]	9.65
AAAAGGGATAAATGTGCGCACATGTTATATATATAT [GTGCAC_site9534]	9.98
ACATATCTACACAGTGGTACTTCCATTAATATATAC [XGTACX_site3827]	9.78
TCATAAATTAAACAAACACACACGTTCTTTTATTTA [CACACA_site713]	9.86
ATTTATTCAAATGGTTGTACTACAAATAAACATTAT [XGTACX_site3378]	9.63
AACAATGTTGTACATACACACACACTAATAAAAAAT [CACACA_site8758]	10.3
CATAAATACACTGTAGCGCACACGGCCAAAAAAAAA [CACACA_site8537]	9.95
ATATAATATGGTATTACACACTGTTATAAGTATGGC [CACACA_site2094]	9.79
GTAAAAAAAGAGCACACACACAAAAACACCCACAAA [CACACA_site1292]	10.9
TTTATTCCCGCATATAGTACATATACCATTTAATGT [XGTACX_site7011]	9.73
AATATTTAAGTACTGGTGCGTGTATATAATGATTAA [GTGCAC_site9633]	9.68
AAACTTGTAAGAAACACACACACACGCATATAAATA [CACACA_site6518]	10.7
ATAAATAAAATATGCACACAAATATAGGAAACAACA [CACACA_site2561]	10.1
TTAAATAAAATTTATTGTACATAAAATTAAATATAG [XGTACX_site3039]	9.47
CATAATTTACATAAAAGTACATATATATTAATGACG [XGTACX_site6247]	9.64
GTGTATCAATATGTAGGTACGTAAATATAGATAATA [XGTACX_site5526]	9.81
AATTAATATTTAAATTGTACATGAACATTTTAATGT [XGTACX_site462]	9.5
TAAATATTATTTATATGTACTGATATATTAAATAAA [XGTACX_site3446]	9.38
